± gives the standard deviation of the averaged measurements. This is one part of the list.
These sequences were tested on PfAP2-EXP AP2 domain (GST-tagged) (assay: gcPBM binding intensity (ln(normalized median fluorescence intensity)); higher = stronger DNA binding).
Method in brief: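 For binding intensity, the highest Masliner-normalised natural-log median intensity across replicate spots of either probe orientation was taken. Protein bound to the array was stained with Alexa488 anti-GST antibody and scanned at 488 nm. The protein, GST-tagged P. falciparum DNA-binding domains from E. coli at about 25 μg on average, had been applied for 1 h to an Agilent 4 × 180k array of primer-extended double-stranded 36-bp intergenic genomic probes and negative controls.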

| Sequence | gcPBM binding intensity (ln) |
| --- | --- |
| CAAAATTTTTATAAGTCACACATTATCTAAGCTTAT [CACACA_site5747] | 8.46 ± 0.53 |
| CATATCTCAATTTATGCATGCAGGATTTTTCTAATA [TGCATGCA_site516] | 10.1 ± 0.18 |
| AATATGTACAGACATACACACATATATATATATATA [CACACA_site1222] | 10.1 ± 0.2 |
| ACACAAAAAAAAAAAAAAAAAAAAAAAAAAAAGGAA [CACACA_negctrl_site1162] | 8.02 ± 0.54 |
| TTTTTTTTTTTTTGGTGTACATTTATAAAAAAAAAA [XGTACX_site8368] | 8.36 ± 0.4 |
| ACATATAAGATTATGTGTCCACAAAAAAATAAAACA [XGTACX_site2867] | 8.69 ± 0.38 |
| TTTTTTTATTATTCTTATATAAAAATTTTTTTTAAT [CACACA_negctrl_site159] | 8.27 ± 0.45 |
| TTTTATGTTCTTAATGCACACTTATAAGTATCTTAT [CACACA_site4895] | 9.07 ± 0.21 |
| TTTTTAATAACACTTTTGAAAAATAAAATAAAATAA [CACACA_negctrl_site821] | 8.38 ± 0.28 |
| ATATAATTCAAATACAGTACATATACAATATATACA [XGTACX_site1191] | 8.21 ± 0.3 |
| ATATTATCATTTTTTTTAATGGAAAAAAAAAAAAAA [CACACA_negctrl_site1298] | 8.2 ± 0.61 |
| TTTTAAATTTAGTGTAGTACACTTTTTTCAAATATA [XGTACX_site4659] | 8.28 ± 0.32 |
| TACTTTTATAAAAATTTTATCAAATTCTATATATGT [TGCATGCA_negctrl_site308] | 8.35 ± 0.41 |
| TTATTCTTTTAATATACACACTTTGTCTTTTCGCGC [CACACA_site5525] | 8.48 ± 0.58 |
| ATATATATAAAAGAAACAACATTTATTCAAAAGGTA [CACACA_negctrl_site749] | 8.48 ± 0.55 |
| GCACCCTGTATGAATGCACACATTCATAGAATTGCT [CACACA_site5475] | 8.56 ± 0.29 |
| ATTCAAAAGATGTATACACACATGTGGATAATATAA [CACACA_site2443] | 8.96 ± 0.49 |
| TACATATTTATATACACACACACACGGATATTTATA [CACACA_site7239] | 8.94 ± 0.28 |
| TATTTTTCTTTTTAAAAATATATCACATGAACATTA [XGTACX_negctrl_site183] | 8.21 ± 0.43 |

| Sequence | gcPBM binding intensity (ln) |
| --- | --- |
| AATAACAAAATAGGCACACGCACATATATATATATA [CACACA_site1497] | 10.1 ± 0.38 |
| CCCCTTGTGGATTCTACACACAAAAAGTCGTCAAAA [CACACA_site821] | 8.95 ± 0.38 |
| TGATCAAATAAGTTTGCATGTCAACAATGCATATAT [TGCATGCA_site1025] | 8.75 ± 0.49 |
| GAATTCCTTTGTGTATGTACATAATGATATTATTTT [XGTACX_site7369] | 8.79 ± 0.38 |
| TAATTTTTTAAACACACACACATATATATATATATA [CACACA_site4230] | 10.2 ± 0.3 |
| TATATTTTCCTGCAAACACACATATAAATGGGTAGA [CACACA_site4451] | 8.49 ± 0.52 |
| TTTTTTTTTTTTGGTAGTACATAATATTAATATAAT [XGTACX_site4422] | 8.49 ± 0.42 |
| ATATACTCATTTAATACACACAAAGAGAAAATTAAT [CACACA_site1923] | 8.43 ± 0.3 |
| ATATATATATATATGGTGCATGAAAATTTACTTTGA | 10.1 ± 0.26 |
| GATATTTGTTCATATACACACTTTTGATAAAATATG [CACACA_site4807] | 8.71 ± 0.35 |
| ATAGTACAACAGGTTCTTGACAAACAATATGAATGT [GTGCAC_negctrl_site442] | 8.78 ± 0.49 |
| TAATTTTTTTTTTTTTTTCATTCTTTTCCTTTGATT [CACACA_negctrl_site1365] | 8.22 ± 0.62 |
| TTTATATAATTTTTTTGTACATATATATGAATACAT [XGTACX_site2316] | 8.75 ± 0.61 |
| TTTTGTTGTATGATAATTCTTTTATCAATATGTCTT [TGCATGCA_negctrl_site567] | 8.46 ± 0.33 |
| ACCAAATTATCAAATGGTACACATAAAATAATAAAA [XGTACX_site865] | 8.55 ± 0.32 |
| GTTTCTATTCACATTTTACACACGTCCATCGCATTT [CACACA_site9142] | 9.26 ± 0.47 |
| TAATTAACCTATGCATTCATATAGATACATAAATAT [CACACA_negctrl_site885] | 8.43 ± 0.4 |
| TGAATACATAAATATAGTACATATATATATATATTA [XGTACX_site8756] | 8.23 ± 0.16 |
| AGATCATAATATTATACACACATTATGTATATGTAA [CACACA_site1490] | 8.33 ± 0.47 |

| Sequence | gcPBM binding intensity (ln) |
| --- | --- |
| TATAATATTATTTGAAGTACAAACATAAAAGAATTA [XGTACX_site3161] | 8.57 ± 0.38 |
| TACAAAAAATTATGGAGTACATATATAATATACAAT [XGTACX_site1004] | 8.5 ± 0.33 |
| GAACCATTTTTTGGTATACACACGTAATTATAGAAT [CACACA_site1851] | 8.65 ± 0.42 |
| CACTTTTTTTAAATGTGTACGTATATGAAAATATCA [XGTACX_site4854] | 8.33 ± 0.33 |
| TAAAAAAATAAAATTACACACATATATAGATATATA [CACACA_site7273] | 8.16 ± 0.29 |
| ATATACATATCATGTAGTACAATTTTTTTACTTTTT [XGTACX_site7988] | 8.3 ± 0.3 |
| TAAACAAAAAGGAAGAGTACTTGTAAAATTTGTAAA [XGTACX_site3003] | 8.86 ± 0.5 |
| AATTGGGAACTGTAATGTACATATATTGAAAGTATA [XGTACX_site7081] | 8.87 ± 0.35 |
| ACAAAAAAAAATATGTTAACTATATATATATATATA [CACACA_negctrl_site346] | 10.1 ± 0.43 |
| TATTTATTTGTACATATACACACTTAAATATGTTTA [CACACA_site3902] | 8.64 ± 0.38 |
| TTATATTTCTTGAAGGGTACATACCATTATTTTTAA [XGTACX_site1159] | 8.37 ± 0.3 |
| ATACATATATTAGGATGTACGTTTATTTTAGTTATT [XGTACX_site7169] | 8.41 ± 0.15 |
| AGAAAACTCGCTTTTCTAAATCTCAAAAAAAAAAAA [XGTACX_negctrl_site94] | 8.21 ± 0.38 |
| ATATATTTATATATTACACACAATATTGGAGACATA [CACACA_site931] | 8.81 ± 0.42 |
| TATATATATATAGATGCATGCAATTACATATAACAA [TGCATGCA_site118] | 10.2 ± 0.23 |
| TTGTGTACATATTAAGTGCATATATATATATATATA | 10.4 ± 0.33 |
| ATTTTCTATATCTTTCAACACACAAATTTTTTTTTC [CACACA_site7918] | 8.69 ± 0.6 |
| TACATCAAACAAGTATGTACATATATATATATATAT [XGTACX_site7415] | 10.2 ± 0.49 |

— the supplement of paper PMC11417369
